From PubChem BioAssay AID2546 (National Center for Advancing Translational Sciences (NCATS), 2010)
Among all 310,000 compounds or so, about 11,000 (3.5%) were called active. The shares of active, inactive and inconclusive entries below differ from those in the screen. Calls follow the shape of the dose curve; as a rule, active = well fitted inhibition curve with a large enough effect; inconclusive = small, poorly fitted or top-dose-only effect, or effect the other way; inactive = flat fitted curve, though single readings scatter. No potency is given beside an inconclusive call; the fits are too rough.

assay: VP16 counterscreen qHTS for inhibitors of ROR gamma transcriptional activity; details: Drosophila S2 Gal4-VP16 UAS-luciferase, luminescence, 20 h; activity, negative = inhibition: at 53.6 µM (top of the series);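 also: Gal4-VP16 expression switched on by copper sulfate through the metallothionein promoter; nearly all actives have a fitted effect of over 50% in size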
% is scaled to controls: 0 for no effect and ±100 for the full control effect; potency is read from the fitted curve at half-maximal effect; tags tell the direction and shape of the fitted curve.

SMILES	Potency	activity, negative = inhibition
CC(=NC1CC1)C1=C(O)c2ccccc2C1=O	inactive	–
CCc1nnc(NC(=O)CSc2nnnn2C)s1	inconclusive [activator, single point]	–
c1csc(Cn2c(-c3cccs3)nc3ccccc32)c1	inconclusive [inhibitor, single point]	–
COc1ccc(N/C(C)=C/C(=O)c2ccccc2)cc1	inconclusive [activator, single point]	–
CCCCCCCCCCCCCCCCOCCOCCOCCOCCOCCOCCOCCOCCOCCOCCOCCOCCOCCOCCOCCOCCOCCOCCOCCOCCO	inconclusive [inhibitor, single point]	–
CC(C)CC(NC(=O)/C(=C/c1ccco1)NC(=O)c1ccc(Br)o1)C(=O)O (stereo not drawn)	inactive	–
Cc1ccc(CCNC(=O)C2CCN(S(=O)(=O)c3ccc4c(c3)NC(=O)C(C)S4)CC2)cc1 (stereo not drawn)	inconclusive [inhibitor, single point]	–
Cc1ccc(-c2nc(CS(=O)CC(=O)NCc3ccccn3)c(C)o2)cc1 (stereo not drawn)	inconclusive [inhibitor, single point]	–
C=C(C)COc1ccc(-c2n[nH]c(C)c2-c2ccc(OC)cc2)c(O)c1	inconclusive [inhibitor, single point]	–
CCOc1cc(/C=N/NC(=O)CN2CCOCC2)ccc1OCc1ccc(Cl)cc1	–	inactive: -1.9% [at 0.365 µM]
C/C(=N/NC(=O)c1ccc2c(c1)OCO2)c1ccc(Br)s1	inconclusive [inhibitor, single point]	–
N#Cc1cccc(-c2nc(Nc3ccncc3)c3ccccc3n2)c1	inconclusive [inhibitor, partial curve]	–
COc1ccc(/C=C2\SC(=S)N(CCC(=O)Nc3cccc(O)c3)C2=O)cc1OC	inconclusive [inhibitor, partial curve]	–
Cc1cc2c(cc1C)CSC(c1ccc(O)cc1)SC2	inconclusive [inhibitor, partial curve, poor fit]	–
CC(Nc1cc(C)cc(C)c1)=[N+](C)CCNS(=O)(=O)c1ccc(Cl)cc1	inactive	–
CCc1ccc(NC(=O)Cn2cc([N+](=O)[O-])nc2C)cc1	inactive	–
CC(/C=C/c1ccco1)=N\NC(=O)c1cccc(Cl)c1	active: 3.55 µM	–
CCc1cccc2c(C(=S)N3CCCC3)c[nH]c12	inactive	–
Cn1c(=O)c(-c2cccs2)nc2cncnc21	inactive	–
CSc1ccccc1C(=O)Nc1ccc2c(c1)OCCO2	inactive	–
S=c1[nH]nc(-c2cccs2)n1/N=C/c1cccs1	inactive	–
Cc1ccc2nc(-c3ccc(NC(=O)Cc4cccs4)cc3)[nH]c2c1	inconclusive [inhibitor, single point]	–
CC(C)N1CC(C(=O)Nc2ccc(Br)c(Cl)c2)CC1=O (stereo not drawn)	inactive	–
O=C(N/N=C/c1cccs1)c1cncc(Br)c1	active: 2 µM	–

SMILES	Potency	activity, negative = inhibition
O=C(N/N=C/c1cccs1)c1cc(C2CC2)nc2ccccc12	active: 17.8 µM	–
O=C(Nc1ncccc1O)c1cccc(S(=O)(=O)N2CCc3ccccc32)c1	inconclusive [inhibitor, single point]	–
Oc1c(Cl)cc(Cl)c(Cl)c1Cl	inactive	–
Cc1ccccc1C(=O)NC(=S)N(C)CCc1ccccn1	inconclusive [inhibitor, single point]	–
O=C(N/N=C/c1c[nH]c2ccccc12)c1cc(-c2ccc3ccccc3c2)n[nH]1	inconclusive [inhibitor, single point]	–
Cc1ccc(C2(CCNS(=O)(=O)c3ccc(C)cc3)CCOC(C(C)C)C2)cc1 (stereo not drawn)	inconclusive [inhibitor, single point]	–
CC1CCC(C(C)C)C2=C1C(C#N)(C#N)C(C#N)(C#N)C(c1ccccc1)N2 (stereo not drawn)	inconclusive [inhibitor, single point]	–
CCOc1nc(NC2CCCC2)nc(N2CCC(C)CC2)n1	inconclusive [inhibitor, single point]	–
CNc1ccc(Br)cc1C(O)c1ccccc1 (stereo not drawn)	inconclusive [inhibitor, single point]	–
COc1ccc2oc(C(=O)N(C)CCOc3ccccc3)c(C)c2c1	inconclusive [activator, full curve, poor fit]	–
CN=c1scc(-c2cccs2)n1/N=C/c1ccccc1O	inactive	–
CC1CC(C)CN(C(=O)CSc2nnc(N)s2)C1 (stereo not drawn)	inactive	–
Cc1ccc(N=C2SC(C(=O)Nc3ccc(OC(F)(F)F)cc3)C(N)=C2C(=O)Nc2c(C)cc(C)cc2C)cc1 (stereo not drawn)	inconclusive [inhibitor, single point]	–
COc1ccccc1NC(=S)N(Cc1ccco1)Cc1cc2cc(C)c(C)cc2[nH]c1=O	inconclusive [activator, single point]	–
COc1ccc(S(=O)(=O)N2CCN(C(=O)NCc3ccccc3)CC2)cc1	inactive	–
O=C(/C=C/c1ccccc1Cl)Nc1ccncc1	inactive	–
O=C(c1ccccc1)c1ccc(NCCCn2ccnc2)c([N+](=O)[O-])c1	inconclusive [inhibitor, single point]	–
CCOc1cc([N+](=O)[O-])cc(/C=N/NC(=O)c2c(-c3ccccc3)noc2C)c1O	active: 0.631 µM	–
O=c1c2ccccc2c(-c2ccc(F)cc2)nn1-c1ccc(C(F)(F)F)cc1	inconclusive [inhibitor, single point]	–
CCC(C(=O)NCc1ccc(F)cc1)N(Cc1ccco1)C(=O)c1snc(C(N)=O)c1N (stereo not drawn)	inactive	–
O=C(O)c1cc(Br)ccc1NN=C1CCCCC1	inconclusive [inhibitor, single point]	–
Cc1cc(C)c2c(N=NN3CCOCC3)[nH]nc2n1	inconclusive [activator, single point]	–
COc1ccc(N2CSC3=C(C#N)C(c4cccs4)CC(=O)N3C2)cc1 (stereo not drawn)	inconclusive [inhibitor, single point]	–
CCOC(=O)C1=C(C)OC(N)=C(C#N)C1c1ccc(OC)c(CSc2ccccn2)c1 (stereo not drawn)	inactive	–
